# Test results from PubChem BioAssay AID1347417 (National Center for Advancing Translational Sciences (NCATS), 2020).
# Out of some 120,000 compounds screened, about 5,300 (4.4%) were called active. The inconclusive results got no clear call from the source; some entries with a clear call stand among them for comparison. The call rests on the fitted dose curve; in most records, active means well fitted inhibition curve with a large enough effect; inconclusive means small, poorly fitted or top-dose-only effect; inactive means no such curve, though single readings can be large or run the other way. Potencies beside an inconclusive call are fits to weak or partial responses and may not hold up.
# Assay: qHTS Primary assay for Inhibitors of Plasmodium falciparum Dd2 growth in vitro; further: nearly all actives have a fitted effect of over 65% in size;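 on activity, negative = inhibition: plate controls were DMSO vehicle for no effect and reference drug for full effect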
# Details: P. falciparum Dd2 growth, SYBR Green, 72 h; activity, negative = inhibition: at 28.9 µM (top of the series) unless noted; series mostly up to 28.9 µM
# Method in brief: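 Readout: SYBR Green fluorescence, 485 nm excitation, 535 nm emission, after ~16 h lysis at 37C. Before that, Dd2-infected red cells (2.5% hematocrit) grew 72 h with compound, 29 uM top final concentration.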
# Potency means the concentration at half of the fitted maximal effect; tags describe the fitted curve by direction and shape.
SMILES,Potency,"activity, negative = inhibition"
CC(C)Oc1ccccc1CN1C[C@@H](CO)[C@H](c2ccncc2)C1,"inconclusive: 2.51 µM [inhibitor, single point]",–
CCCn1ncc(NC(=O)c2cccc(CN3CCC[C@@H]3COC)c2)n1,"inconclusive: 11.2 µM [inhibitor, partial curve, poor fit]",–
O=C1NCCCCCN(C(=O)C2CC=CC2)[C@H]2CCC[C@@H]12,inactive,–
COc1ccc([C@H]2C[C@@H](O)[C@@H](O)[C@@H]2NC(=O)c2cc3ccccc3s2)cc1,"inconclusive: 11.2 µM [inhibitor, partial curve]",–
O=C1c2cnc(-c3cncnc3)nc2OCCN1c1cccc(C(F)(F)F)c1,inactive,–
CCN(CC)S(=O)(=O)c1ccc2c(c1)N(CC(=O)N1CCN(c3cccc(C)c3C)CC1)C(=O)CO2,"inconclusive: 17.8 µM [inhibitor, single point]",–
Cn1nnnc1SCCCNCc1ccccc1OCc1ccc(Cl)cc1,"inconclusive: 12.6 µM [inhibitor, partial curve, poor fit]",–
O=[S+]([O-])(c1cccs1)N1CC(N2CCc3ccccc32)C1,–,inconclusive: -61.3% [inhibitor]
c1ccc(-c2noc(-c3cncnc3N3CCN(C4CCCCC4)CC3)n2)cc1,"inconclusive: 5.01 µM [inhibitor, partial curve, poor fit]",–
Cc1cc(C)c(-c2n[nH]c3c2C(c2ccccc2F)N(Cc2ccco2)C3=O)c(O)c1 (stereo unspecified),active: 3.98 µM,–
O=C1NCCCCCCN(C(=O)C2CCCC2)[C@H]2C[C@H](C(=O)N3CCN(c4ccccn4)CC3)C[C@@H]12,"inconclusive: 5.01 µM [inhibitor, partial curve, poor fit]",–
COCCCNc1nc2c(S(=O)(=O)c3ccc(C)c(C)c3)nnn2c2ccccc12,"inconclusive: 5.62 µM [inhibitor, partial curve]",–
CC(C)CN1C(=O)COC[C@@H]1[C@H](O)c1ccc(NC(=O)c2ccc(C#N)cc2)cc1,"inconclusive: 12.6 µM [inhibitor, partial curve, poor fit]",–
COc1ccc(CNC(=O)CN2C(=O)CC(c3ccc(C)c(C)c3)=Nc3ccccc32)cc1,"inconclusive: 11.2 µM [inhibitor, partial curve]",–
COc1ccc(C(=O)NCCn2cc(SCc3c(F)cccc3Cl)c3ccccc32)cc1,"inconclusive: 17.8 µM [inhibitor, single point]",–
Cc1ccc(-n2ncc3c(NC4CCCCCC4)ncnc32)cc1,"inconclusive: 10 µM [inhibitor, partial curve, poor fit]",–
Cc1cccc(=O)n1CCC(=O)N1CCn2nc(C(O)C3CC3)cc2C1 (stereo unspecified),inactive,–
CCNC(=O)c1cccnc1OC1CCN(C(=O)c2ccccc2Cl)C1 (stereo unspecified),inactive,–
COc1ccc(-c2cc(C(F)(F)F)nc(SCCC(=O)Nc3ccc(OC)c(OC)c3)n2)cc1,"inconclusive: 10 µM [inhibitor, single point]",–
Cc1cnc(CCN)n1CC1CC1,inactive,–
COc1ccc(-c2cc(-c3cnn(C)c3)cn3cncc23)cc1,"inconclusive: 2.82 µM [inhibitor, full curve, poor fit]",–

SMILES,Potency,"activity, negative = inhibition"
CCCC12CN3CC(CCC)(CN(C1)C3c1ccccn1)C2=O (stereo unspecified),"inconclusive: 17.8 µM [inhibitor, single point]",–
CCOc1ccc(CNC(=O)CSc2nnc(C)c3c(C)n(-c4ccc(Cl)cc4)nc23)cc1,–,inconclusive: -70% [inhibitor] [at 5.79 µM]
CN(C)C(=O)c1ccc(-c2nnc3ccc(NC(=O)C4CCC4)cn23)cc1,active: 3.98 µM,–
COc1ccc(C(=O)N2CC(Oc3ccc(F)cc3C)C2)cc1,"inconclusive: 31.6 µM [inhibitor, single point]",–
Cc1cc(CN(C)C(=O)c2csc3nc(-c4cccc(C(F)(F)F)c4)cn23)on1,"inconclusive: 17.8 µM [inhibitor, single point]",–
CCOC(=O)c1cnc2c(C)cc(C)cc2c1NCCc1ccc(OC)c(OC)c1,–,inconclusive: -103% [inhibitor] [at 5.79 µM]
O=C(Nc1ccc(OC(F)(F)F)cc1)N1CC[C@H]2COC(=O)N2c2cc(F)ccc2C1,inactive,–
Cc1cccc(C)c1NC(=O)c1nc(S(C)(=O)=O)ncc1N(Cc1ccc(F)cc1)Cc1ccco1,inactive,–
CCOc1cccc(CNCCNC(=O)c2nonc2N)c1,"inconclusive: 7.08 µM [inhibitor, partial curve, poor fit]",–
CC(C)c1noc(-c2cn(C3CCN(C(=O)C4(c5ccccc5)CC4)CC3)nn2)n1,"inconclusive: 3.98 µM [inhibitor, single point]",–
O=C(O)[C@H](Cn1ccc(=O)[nH]c1=O)NC1CCC1,inactive,–
O=C(c1ccccc1C(F)(F)F)N1CCC(n2cnnc2C2CC2)CC1,inactive,–
CCCCN(C)CCNC(=O)C1CCCN(S(=O)(=O)c2ccc3c(c2)oc(=O)n3C)C1 (stereo unspecified),"inconclusive: 7.94 µM [inhibitor, single point]",–
COC[C@@H]1CN(C(=O)c2cccn2C)C[C@H]1c1nc(C2CC2)no1,inactive,–
CCOC(=O)c1c(C)[nH]c(CCC(=O)NCCCN2CCN(c3cc(Cl)ccc3C)CC2)c1C,"inconclusive: 5.62 µM [inhibitor, partial curve, poor fit]",–
COc1ccc(NC(=O)CCCn2c(=O)c3cccn3c3ccccc32)c(OC)c1,"inconclusive: 0.708 µM [inhibitor, partial curve, poor fit]",–
O=C(Nc1cccc(-c2ccc(N3CCOCC3)nn2)c1)Nc1ccccc1F,"inconclusive: 17.8 µM [inhibitor, single point]",–
CCOc1ccccc1CN1C[C@@H](CO)[C@H](C(=O)N(C)C)C1,"inconclusive: 7.08 µM [inhibitor, single point]",–
COc1cc(F)ccc1-c1cc2c(nc1OC)nc(CC1CC1)n2C,"inconclusive: 7.08 µM [inhibitor, partial curve, poor fit]",–
O=C(c1ccsc1)N1CCCN(c2cc(-c3ccc(Cl)cc3)[nH]n2)CC1,inactive,–
